Reference: PubChem BioAssay AID1345083 (National Center for Advancing Translational Sciences (NCATS), 2018)
Values joined by “and” are separate entries in the source; they are usually repeats but may differ in a detail not shown here. Equal entries are not always repeated. Out of some 94,000 compounds screened, about 6,200 (6.6%) were called active. Inconclusive means that the source gave no clear call. Such entries were picked first, then a sample of the others. The call rests on the fitted dose curve; in most records, active means well fitted inhibition curve with a large enough effect; inconclusive means small, poorly fitted or top-dose-only effect; inactive means flat fitted curve, though single readings scatter. A potency beside an inconclusive call is a rough fit, not a confirmed value.

Assay: Cytotoxic Profiling in HEK 293 Cell Line of Diverse Libraries Using Quantitative High-Throughput Screening; further: nearly all actives have a fitted effect of over 60% in size
Conditions: HEK 293 viability, ATP luminescence (CellTiter-Glo), 48-72 h; series mostly up to 115 µM
In short: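 HEK 293 seeded at 250 cells/well receive compound via pintool. After 48 or 72 hr at 37 degree Celsius, 5% CO2 and 95% humidity, CellTiter-Glo is dispensed and luminescence read following 10 min at room temperature.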
Potency means the concentration at half of the fitted maximal effect; tags describe the fitted curve by direction and shape.

Row | SMILES | Potency
1 | CN1C[C@H](NC(=O)c2nc3ccccc3s2)CCC[C@@H](C(=O)N(C)Cc2cccnc2)CC1=O | inconclusive: 50.1 µM [inhibitor, partial curve]
2 | Cc1ccccc1-c1cnc2[nH]cc(CC(=O)Nc3ccccn3)c2c1 | inconclusive: 44.7 µM [inhibitor, partial curve, poor fit]
3 | O=C(c1cn(C/C=C/c2ccccc2)nn1)N1CCN(c2cccc(Cl)c2)CC1 | inactive
4 | Cc1ccc(-c2cccc(CN3CCCC(c4nc5ccc(F)cc5c(=O)[nH]4)C3)c2)c(C)c1 (centres undefined) | inconclusive: 44.7 µM [inhibitor, partial curve, poor fit] and active: 31.6 µM
5 | COc1ccc(C(=O)NC2CCCN(c3cc(-c4ccc(Cl)cc4)[nH]n3)C2)cc1OC (centres undefined) | active: 35.5 µM
6 | Cc1ccc(CN2CCC(N3CCCCCC3=O)CC2)cc1 | inactive
7 | O=C(NCc1ccccn1)C1c2ccccc2C(=O)N(c2ccccc2)C12CCCCC2 (centres undefined) | inconclusive: 35.5 µM [inhibitor, partial curve]
8 | CS(=O)(=O)Nc1ccc(C2(C(=O)NC3CCCCCC3)CCCCC2)cc1 | inconclusive: 79.4 µM [inhibitor, single point]
9 | Cn1c(C(=O)N2CCn3nc(Cc4ccccc4)cc3C2)cc2ccccc21 | inconclusive: 44.7 µM [inhibitor, partial curve, poor fit]
10 | Cc1ccc(-c2ncc(C(=O)NCCN(C)C3CCCCC3)c(-c3ccncc3)n2)cc1 | active: 20 µM
11 | OCCC1CN(Cc2c(F)ccc(F)c2F)CCN1C1CCCC1 (centres undefined) | inactive
12 | Cc1cc(C(=O)N2CCC3(CC2)c2[nH]c4ccccc4c2CCN3C)n(C)n1 | active: 39.8 µM
13 | CCCNC(=O)N1CCCCC1c1nc(CCOc2ccc(F)cc2)no1 (centres undefined) | inconclusive: 89.1 µM [inhibitor, single point]
14 | CNC(=O)[C@@H](c1ccccc1)N1CCC[C@H]1C(=O)NCc1ccc(C(F)(F)F)cc1 | inconclusive: 100 µM [inhibitor, partial curve]
15 | COc1ccc(CN2Cc3cc(NC(=O)c4ccc(Cl)cc4)ccc3OC(C)C2=O)c(OC)c1 (centres undefined) | inconclusive: 56.2 µM [inhibitor, partial curve, poor fit]
16 | Cc1ccc(CN2CCC3(CC2)Cc2ccccc2NC3=O)cc1 | inactive
17 | Cn1cc2c3c(cccc31)CN(C(=O)c1ccc(F)c(Cl)c1)CC2 | inconclusive: 89.1 µM [inhibitor, single point]
18 | CCCC1c2nccn2CCCN1C(=O)c1ccncc1F (centres undefined) | inactive
19 | O=C(c1ccoc1)N1CCC(N2C(=O)[C@H]3CN(Cc4ccccc4)C[C@H]3C2=O)CC1 | inconclusive: 89.1 µM [inhibitor, single point]
